Whole data set: some 33,000 sequences, median “E-score (-0.5 to 0.5)” near -0.021, cut for the highest 2% near 0.32. The list shows a part of the results.
Target: T1, Zap1 (UniProt P47043)
T1 sequence: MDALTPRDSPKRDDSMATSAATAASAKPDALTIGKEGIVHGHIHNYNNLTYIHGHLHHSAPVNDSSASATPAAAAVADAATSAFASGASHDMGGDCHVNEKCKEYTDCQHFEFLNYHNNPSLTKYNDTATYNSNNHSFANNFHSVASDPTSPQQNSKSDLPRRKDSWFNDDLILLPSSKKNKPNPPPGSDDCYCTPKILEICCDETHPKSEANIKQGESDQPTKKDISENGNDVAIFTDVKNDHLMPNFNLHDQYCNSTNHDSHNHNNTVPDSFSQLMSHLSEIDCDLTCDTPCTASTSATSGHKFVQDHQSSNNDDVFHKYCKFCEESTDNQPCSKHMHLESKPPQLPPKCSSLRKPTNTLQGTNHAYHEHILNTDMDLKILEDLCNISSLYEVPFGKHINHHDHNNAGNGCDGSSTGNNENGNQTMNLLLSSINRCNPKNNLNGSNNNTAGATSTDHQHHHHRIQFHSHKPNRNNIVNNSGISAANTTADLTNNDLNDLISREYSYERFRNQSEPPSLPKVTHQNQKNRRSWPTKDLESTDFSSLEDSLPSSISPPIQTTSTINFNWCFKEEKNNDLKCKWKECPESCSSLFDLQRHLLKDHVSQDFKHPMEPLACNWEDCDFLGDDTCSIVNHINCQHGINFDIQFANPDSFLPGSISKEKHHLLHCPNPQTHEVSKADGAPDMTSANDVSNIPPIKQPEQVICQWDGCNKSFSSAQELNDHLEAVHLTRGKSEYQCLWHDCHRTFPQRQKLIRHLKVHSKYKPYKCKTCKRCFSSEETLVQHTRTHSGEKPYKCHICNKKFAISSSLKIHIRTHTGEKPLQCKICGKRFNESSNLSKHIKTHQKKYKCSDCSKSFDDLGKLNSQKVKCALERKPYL
Assay: PBM E-score (8-mer binding enrichment) (E-score (-0.5 to 0.5)); higher = stronger / more preferred TF binding; most listed sequences are background and not binding sites
Conditions: protein concentration: 200 nM; construct: GST-full length
In short: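 E-scores (a modified Wilcoxon-Mann-Whitney statistic) were assigned by the Universal PBM Analysis Suite to every ungapped eight-base word pooled with its reverse complement. The input came from universal all-10-mer Agilent arrays made double-stranded by primer extension and probed with GST-tagged yeast transcription factors at about 100-200 nM. Fluorescent anti-GST detected bound protein, and masliner normalised the scans.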

Point of comparison: TAGAGGGA, “PBM E-score” value -0.119. Against it:
- AAGGAATA — higher, 0.113
- CGGCGGGA — lower, -0.176
- ATACGCCA — lower, -0.166
- ACATCTCT — lower, -0.146
- AACATTTG — lower, -0.122
- CTAGCTTC — lower, -0.267
- AGTCGTCA — higher, -0.0746
- AAAACGCG — higher, 0.0266
- GGCAAAAA — higher, 0.14
- TGGCCAAA — higher, -0.0636
- ACCACCTC — higher, 0.112
- CCCTACAA — higher, 0.33
- GGAGGGTA — higher, 0.346
- CGCCAGTA — lower, -0.316
- AAGGTCCG — higher, 0.0328
- GATCGTAC — higher, -0.069
- GATTCGCC — lower, -0.195
- CAGTTTCC — higher, -0.042
- AAGCAGGT — higher, 0.191
- CGGCATCC — higher, -0.101
- ACCGGAGC — higher, -0.0867
- CGAATACG — higher, -0.0272
- CAACCTCG — higher, 0.286
- CGTATACC — higher, 0.0534
- CTGTAAAC — higher, 0.16
- ACCTCCCT — higher, -0.0563
- CTTCCCTC — higher, -0.107
- ACGCCACA — lower, -0.155
- AATCCCGC — higher, -0.00031
- CCAATCTA — higher, 0.00747
- AGTAAGTC — lower, -0.412
- CTATCTAC — higher, -0.064
- GCCTGACA — lower, -0.384
- TGGAGAAA — higher, 0.0584
- TCTGTGCA — higher, -0.0521
- TACCAACA — higher, 0.223
- AGTCATCA — higher, -0.0593
- ATCGACTC — higher, -0.101
- CGTCGCAG — higher, -0.0222
- AGCCCAAC — higher, -0.0986
- GGATGGTA — higher, 0.0744
- GGACATTA — higher, 0.0786
- ACGTAACC — higher, 0.411
- CCCGGTGA — higher, -0.0359
- CAATGATG — higher, -0.101
- ACTGACCG — higher, 0.00494
- CATCTTGA — higher, -0.0414
- GGGACGAA — higher, 0.0111
- CAGGGCGA — higher, -0.0893
- ATCTTGAG — higher, -0.0439
- CTTCCCGA — higher, -0.0237
- CGTGACAA — higher, -0.0387
- GGAGATAC — higher, -0.0504
- AACGCATT — higher, 0.0284
- CCCCTCCC — higher, 0.0739
- AATCAAGA — higher, 0.0806
- TAAAAGTA — higher, 0.149
- ATGGCCCA — higher, 0.0132
- TGATAAAA — higher, 0.17
- GATTTCAA — higher, -0.0393
- GGCTACCA — higher, 0.145
- AGCCACCT — higher, -0.111
- ATAGGACG — lower, -0.292
- ATGATTAG — higher, 0.00409
- CGTTACGA — higher, 0.121
- GGTTCTGA — higher, 0.279
- GCCGTGAC — higher, 0.124
- GCATGCGA — higher, -0.074
- GGTCACCA — higher, 0.261
- CCGTACTC — lower, -0.185
- CTATCGAG — higher, -0.00103
- CTGTGTAC — higher, -0.0289
- ACCAACAT — higher, 0.0968
- AAGCTAAT — higher, 0.0587
- CGTGGGGC — lower, -0.23
- AGTTATCG — higher, 0.182
- GCCGCCTA — lower, -0.271
- CAGATCCA — lower, -0.2
- CAGGTGAA — higher, -0.0882
- CCAGCGAA — higher, -0.0737
- CCAAAACC — higher, 0.331
- AGCCAGCC — lower, -0.276
- GTCAACAA — higher, 0.0413
- ACTGTCTG — higher, -0.0351
- AAATAGTA — higher, 0.0886
- CGGGGGTA — higher, -0.0836
- AGTGTGCC — lower, -0.127
- CCCGAAAA — higher, 0.159
- AATGCTGT — higher, -0.0865
- CACGCTTA — higher, -0.0534
- AGGCTAAT — higher, -0.0215
- CATGTACC — higher, 0.0466
- GCCTGCCA — lower, -0.189
- TGACCGAA — higher, 0.162
- CATAAGAC — higher, -0.0321
- ATGGGTAG — higher, 0.238
- AAACCAAA — higher, 0.254
- ACTGTAAA — higher, 0.196
- CTTCGATA — higher, 0.00101
- GAACTTGC — lower, -0.195
- GAGGATTA — higher, -0.00063
- GCCGACAC — lower, -0.14
- ACCCGGAG — higher, 0.304
- GCAGCACA — higher, -0.0816
- GGCAGTAA — higher, 0.0175
- AAAAAGAG — higher, -0.0314
- ACTTAAGC — lower, -0.241
- CGGGACGA — higher, -0.0434
- GGAATGGA — lower, -0.147
- CCAGGGCC — higher, -0.107
- AAGTCCAG — higher, 0.0214
- AGACCGAG — higher, 0.0347
- GCGAATAA — higher, 0.0462
- ACGATAAG — higher, -0.0456
- AATTCTAC — higher, 0.104
- TAATCTCA — higher, 0.00156
- GCTTGCAA — higher, -0.0836
- ACGGGCTA — lower, -0.26
- CTTCTGAA — higher, -0.0539
- AAGTTAAA — higher, 0.0966
- ATAGGTAG — higher, 0.172
- ACATGGCG — lower, -0.221
- CCGCGACG — higher, -0.0672
- GGGGTATA — higher, 0.182
- CGGCATTC — lower, -0.148
- GGACAAAA — higher, 0.211
- ATGCACCC — higher, 0.00928
- ACATGGAC — higher, -0.00274
- AGCCCACA — lower, -0.18
- CACTCGAC — lower, -0.222
- AAAGGGCC — higher, 0.0873
- CTGGGAAG — higher, 0.0904
- ATTGGCGC — lower, -0.23
- CTGAGAAC — higher, 0.0895
- CAAATGTC — lower, -0.185
- TCATTTCA — higher, 0.112
- CGGAGCAA — lower, -0.179
- CTCTTACA — higher, -0.0447
- CGGATCTA — higher, -0.0644
- ACACGCCA — lower, -0.276
- ACTCCCGC — lower, -0.16
- ATGTAAAC — higher, 0.0283
- GTTCGCCA — higher, 0.00409
- GCCCGCAA — higher, 0.055
- AAAGGACT — higher, -0.0983
- ACGTTTCG — higher, -0.047
- AAACTAAG — higher, 0.178
- ACAGATAT — higher, 0.0689
- CATCAAAA — higher, 0.0889
- GAATAGGA — higher, 0.00481
- ATCATCAT — higher, -0.053
- TACGAAAA — higher, 0.173
- ACTAAAAC — higher, 0.19
- AGCTGTCC — lower, -0.225
- AGAGTTTG — higher, -0.0823
- TACGCCTA — lower, -0.15
- GGGTGTCA — higher, 0.0516
- CGGCAACA — higher, -0.0972
- AATAATGC — higher, 0.14
- CCCCGACC — higher, -0.00227
- AAACCTGC — higher, -0.023
- CGTCACCA — higher, 0.0249
- TAGAGCGA — lower, -0.2
- ATCCCCAT — higher, 0.0858
- CCGTACGC — lower, -0.289
- ATGTATGC — higher, -0.00123
- AAGCCGGT — higher, 0.0436
- GCGGGAGC — lower, -0.247
- CAAGGGAG — higher, 0.00323
- TATTGTGA — higher, 0.133
- AGCTTCGC — lower, -0.222

Reference: the supplement of paper PMC3334620
